Structures are written as SMILES. ± gives the uncertainty stated by the source. The source holds more than one record for some entries. Only these are listed. An entry can have further records. Values that stand side by side are repeats in other runs, samples, wells, individuals or studies. Marks in square brackets tell the records apart. Letters hold for one entry only.

Drawing on the CheMixHub viscosity set, this text covers viscosity for one compound.

The conditions of this series: 303.15 K; 101 kPa.

Turning to `c1ccncc1`, the viscosity is 0.8478 ± 0.0076 mPa·s [study A] and 0.8354 ± 0.022 mPa·s [study B] and 0.821 ± 0.008 mPa·s [study C] and 0.821 ± 0.008 mPa·s [study D] and 0.8385 ± 0.012 mPa·s [study E] and 0.8355 ± 0.0085 mPa·s [study F] and 0.826 ± 0.022 mPa·s [study G].
